From PubChem BioAssay AID485294 (National Center for Advancing Translational Sciences (NCATS), 2010)
Among all 370,000 compounds or so, about 150 (0.041%) were called active. This list was built around the results that the source calls inconclusive (neither active nor inactive); the mix of calls is not that of the screen. Calls come from the whole dose curve; as a rule, active = well fitted inhibition curve with a large enough effect; inconclusive = small, poorly fitted or top-dose-only effect; inactive = flat fitted curve, though single readings scatter. Potencies of inconclusive entries are left out as doubtful fits.

These molecules were tested against Beta-lactamase (Escherichia coli (strain K12)) (UniProt P00811) (assay: qHTS Inhibitors of AmpC Beta-Lactamase (assay with detergent)). Settings: AmpC hydrolysis of nitrocefin, absorbance 480 nm, 0.01% Triton; activity change, negative = inhibition: at 114 µM (top of the series).
Sequence of UniProt P00811 (P00811 whole entry, looked up): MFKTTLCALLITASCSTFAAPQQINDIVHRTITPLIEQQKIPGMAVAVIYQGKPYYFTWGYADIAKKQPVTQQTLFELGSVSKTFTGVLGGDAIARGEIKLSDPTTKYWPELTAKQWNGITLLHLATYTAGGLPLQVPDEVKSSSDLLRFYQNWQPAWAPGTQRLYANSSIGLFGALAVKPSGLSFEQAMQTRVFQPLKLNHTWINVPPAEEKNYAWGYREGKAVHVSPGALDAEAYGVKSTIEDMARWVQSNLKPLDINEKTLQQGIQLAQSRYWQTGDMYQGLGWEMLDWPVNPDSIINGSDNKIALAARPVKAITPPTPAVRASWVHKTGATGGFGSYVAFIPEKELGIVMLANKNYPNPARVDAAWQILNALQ
In short: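 AmpC (5.3 nM in the dispensed reagent) in 20 mM phosphate pH 7.0 with 0.01% (detergent screen) or 0.0001% Triton X-100 was preincubated with compounds for 15 min at room temperature. Nitrocefin was then added from an 800 uM solution, and hydrolysis was followed at 480 nm.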
Note: nearly all actives have a fitted effect of over 25% in size.
Potency is the fitted concentration of half-maximal effect; tags give direction and shape of the fitted curve.
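Throughout, for activity change, negative = inhibition: 0% = no-compound wells and -100% = no-enzyme wells.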

With O=C(COc1cc2oc(=O)cc(-c3ccccc3)c2cc1Cl)NC(Cc1c[nH]c2ccc(O)cc12)C(=O)O (centres undefined) as the molecule, how does the Potency read?
Its Potency is inconclusive [inhibitor, full curve, poor fit].

For COc1ccc(Cl)cc1NC(=O)CSc1nnc(CNC(=O)c2cccs2)o1, which Potency is on record?
Its Potency is inconclusive [inhibitor, partial curve].

Which Potency does the source give for Cc1n[nH]c(C)c1S(=O)(=O)N1CCC(C(=O)Nc2cccc(F)c2)CC1 here?
The Potency was inconclusive [inhibitor, single point].

With COc1ccc(CCNS(=O)(=O)c2cccs2)cc1 as the molecule, how does the Potency read?
The Potency was inconclusive [inhibitor, full curve, poor fit].

For CCc1ccc(S(=O)(=O)c2c[nH]c3cc(OC)c(OC)cc3c2=O)cc1, which Potency is on record?
The Potency was “inactive”.

O=S(=O)(Nc1nc2ccccc2s1)c1cc(F)ccc1F was tested. Which Potency did it give?
Its Potency is inconclusive [inhibitor, partial curve].

How did the Potency turn out when O=C(/C=C/c1cccc([N+](=O)[O-])c1)NCCSCc1ccccc1Cl was run?
Its Potency is “inactive”.

How did the activity change, negative = inhibition turn out when c1ccc(SCc2cn(C[C@H]3CC[C@@H]([C@@H]4CC[C@H](Cn5cc(CSc6ccccc6)nn5)O4)O3)nn2)cc1 was run?
Its activity change, negative = inhibition is inconclusive: -15.9% [inhibitor].

Cc1c(C(=O)NCc2nnc(-c3ccccc3)o2)oc2c(F)cccc12 was tested. Which Potency did it give?
The Potency was inconclusive [inhibitor, full curve].

How did the Potency turn out when Cc1ccc(Cl)c2c(N=Nc3ccccc3)c(O)[nH]c12 was run?
Its Potency is inconclusive [inhibitor, partial curve].

Which Potency does the source give for Cc1ccc(C(=O)c2cn(Cc3ccccc3F)c3cc4c(cc3c2=O)OCO4)cc1 here?
The Potency was inconclusive [inhibitor, full curve, poor fit].

CCOC(=O)c1nnn(-c2nonc2N)c1-c1ccc(C)cc1 was tested. Which Potency did it give?
Its Potency is inconclusive [inhibitor, partial curve].

How did the Potency turn out when Cc1ccc(C(=O)CC(SCC(=O)O)c2ccc([N+](=O)[O-])cc2)cc1 (centres undefined) was run?
Its Potency is inconclusive [inhibitor, single point].

With Cc1cc(C(=O)CSc2cccc[n+]2[O-])c(C)n1-c1ccc(OC(F)F)cc1 as the molecule, how does the Potency read?
The Potency was “inactive”.

For CCC(=O)N1CCN(CCN=Cc2c(O)n(C)c(=O)n(C)c2=O)CC1, which Potency is on record?
The Potency was inconclusive [inhibitor, partial curve, poor fit].

With Cc1ccccc1N(CC(=O)NC1CCCCC1)C(=O)CNC(=O)c1cccs1 as the molecule, how does the Potency read?
Its Potency is “inactive”.

How did the Potency turn out when CCOC(=O)c1sc(=S)n(-c2cc(OC)ccc2OC)c1N was run?
Its Potency is “inactive”.

With O=[N+]([O-])c1ccc(Cl)cc1N/N=C/c1ccncc1 as the molecule, how does the Potency read?
The Potency was inconclusive [inhibitor, full curve, poor fit].

With Cc1ccc(CNC(=O)C2=NNC(=O)CC2)cc1 as the molecule, how does the Potency read?
The Potency was inconclusive [inhibitor, partial curve, poor fit].

How did the Potency turn out when Cc1csc(CNC(=O)C2CCC(=O)N(CCCc3ccccc3)C2)n1 (centres undefined) was run?
The Potency was “inactive”.

O=C(NCCc1ccc(Cl)cc1Cl)c1cncc(Br)c1 was tested. Which Potency did it give?
The Potency was “inactive”.

Which Potency does the source give for CC(=O)c1ccc(N2CCN(C(=O)CCC(=O)c3cccs3)CC2)cc1 here?
Its Potency is “inactive”.

With COc1ccc(C(C)=O)c(Oc2ccc(S(=O)(=O)N3CCOCC3)cn2)c1 as the molecule, how does the Potency read?
The Potency was “inactive”.

Which Potency does the source give for CCC(=O)NC(=S)Nc1ccc(S(=O)(=O)NC(C)C)cc1 here?
The Potency was inconclusive [inhibitor, single point].

Which Potency does the source give for COC(CNC(=O)CCCn1nnnc1CN1CCOCC1)c1cccs1 (centres undefined) here?
The Potency was inconclusive [inhibitor, full curve, poor fit].

CCN(CC)CCCNC(=O)c1ccccc1C was tested. Which Potency did it give?
The Potency was inconclusive [inhibitor, full curve, poor fit].

With CCOC(=O)c1cccc(NC(=O)N2CC(CC)Oc3ccccc32)c1 (centres undefined) as the molecule, how does the Potency read?
The Potency was “inactive”.

For COc1ccccc1C(=O)n1nc(-c2ccccc2)nc1NCc1ccco1, which Potency is on record?
Its Potency is “inactive”.

Which Potency does the source give for O=C(NCCCN1CCN(Cc2ccccc2)CC1)C1CCN(S(=O)(=O)N2CCCC2)CC1 here?
The Potency was inconclusive [inhibitor, full curve, poor fit].

With O=c1oc(-c2cccs2)nc2sc3c(c12)CCC3 as the molecule, how does the Potency read?
Its Potency is inconclusive [inhibitor, partial curve].

For CCN1C(=O)[C@@H]2[C@H](C1=O)[C@@H]1C(=O)Nc3ccccc3C(=O)N1[C@@H]2c1ccc(OC)cc1, which Potency is on record?
Its Potency is inconclusive [inhibitor, partial curve, poor fit].

How did the Potency turn out when O=c1c([N+](=O)[O-])c(N2CCOCC2)c2ccccc2n1-c1ccccc1 was run?
The Potency was “inactive”.

How did the Potency turn out when CCCOc1ccc(-c2c(=O)n(OCC(=O)OCC)c3ccccc3[n+]2[O-])cc1 was run?
Its Potency is “inactive”.

With Cc1sc(NC(=O)C2=COCCO2)c(C(N)=O)c1C as the molecule, how does the Potency read?
Its Potency is inconclusive [inhibitor, full curve].

For O=C(CCNC(=O)c1ccco1)Nc1cccc(Br)c1, which Potency is on record?
Its Potency is inconclusive [inhibitor, partial curve].

Which Potency does the source give for COc1ccc(Nc2nc(NCc3ccco3)nc(N/N=C/c3ccccc3F)n2)cc1 here?
Its Potency is inconclusive [inhibitor, full curve, poor fit].

For CCOc1cc(/C=C(/C#N)C(=O)Nc2ccc(OC)cc2)ccc1OCc1ccc(C(=O)O)cc1, which Potency is on record?
Its Potency is inconclusive [inhibitor, partial curve].

For CC(CNC(=O)c1cc(Cl)ccc1[N+](=O)[O-])NC(=O)c1cc(Cl)ccc1[N+](=O)[O-] (centres undefined), which Potency is on record?
Its Potency is inconclusive [inhibitor, full curve, poor fit].

How did the Potency turn out when COc1cccc(C(=O)NNC(=O)Cc2cccs2)c1 was run?
Its Potency is “inactive”.

Cc1ccc(-n2nnnc2-c2cnn(-c3cccc(F)c3)c2C(F)(F)F)cc1 was tested. Which Potency did it give?
Its Potency is inconclusive [inhibitor, partial curve].

With COc1ccc(-c2nn(-c3ccccc3)cc2C=O)cc1[N+](=O)[O-] as the molecule, how does the Potency read?
Its Potency is inconclusive [inhibitor, single point].

Which Potency does the source give for Cc1cccc(N2CCN(C(=O)C3CCN(S(=O)(=O)c4cccc5nsnc45)CC3)CC2C)c1 (centres undefined) here?
The Potency was “inactive”.

Which Potency does the source give for COc1ccc2cc3cc(C(=O)Nc4ccccc4C)oc3nc2c1 here?
The Potency was “inactive”.

How did the Potency turn out when COc1ccccc1N1CCNC(C)C1=O (centres undefined) was run?
Its Potency is inconclusive [inhibitor, full curve, poor fit].
